Molecules are shown by their SMILES.

The subject of the assay is bacteria of the swab from the tongue of the patient with Alzheimer's disease. The experiment in a line: Number of bacterial species isolated from tongue swab on media with excipients. Particulars: agent added.

Take `C[C@H]1COc2c(N3CCN(C)CC3)c(F)cc3c(=O)c(C(=O)O)cn1c23` [Levofloxacin]: the “Unique bacterial species identified with proposed method (number)” value worked out at 0 (COL (Columbia agar), ER +); 0 (COL (Columbia agar), ER −); 2 (COL + PEP medium, ER +); 1 (COL + PEP medium, ER −); 1 (LB agar, ER +); 0 (LB agar, ER −). In addition, the “Number of different bacterial species isolated” value (COL (Columbia agar), erythrocytes added (ER +)) is 0; the “Number of different bacterial species isolated” value (COL (Columbia agar), erythrocytes not added (ER −)) was 0; the “Number of different bacterial species isolated” value (COL + PEP medium, erythrocytes added (ER +)) is on record as 4; the “Number of different bacterial species isolated” value (COL + PEP medium, erythrocytes not added (ER −)) stood at 2; the “Number of different bacterial species isolated” value (LB agar, erythrocytes added (ER +)) is 2; the “Number of different bacterial species isolated” value (LB agar, erythrocytes not added (ER −)) turned out to be 0.

The record behind these values is patent publication US20240182945A1, “PRODUCTS FOR REGULATION OF EUKARYOTIC AND MICROBIAL CELLS GROWTH” (priority 2021, published 2024).
